Measurements as given in the supplement of paper PMC10338343.
± gives the standard deviation. Whole data set: some 3,700 sequences, median “pre-steady-state target cleavage rate” near 0.02, cut for the highest 2% near 0.23. The entries are a selection whose mix differs from that of the whole data set.

test system: MILI (PIWIL2) piRISC loaded with Kctd7 piRNA (26 nt); assay: pre-steady-state target cleavage rate (min^-1); MIWI and MILI are mouse PIWI proteins and EfPiwi is from a freshwater sponge; tags in brackets are library labels; higher = faster piRNA-guided slicing of the target; settings: guide: Kctd7 piRNA 5'p-UGUUAAUCUCUCAGAGAAGGUGACAG; auxiliary factor: 500 nM mouse GTSF1
Experimental: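 Cleave-'n-Seq: a library of target RNAs (target site embedded in constant flanks, ACAGCATTCCGCGTTAGTGATATCCG... 5' flank; DNA-blocked outside the site) at 0.1 nM was incubated with 1 nM active mouse MILI or MIWI piRISC (synthetic 5'-monophosphorylated piRNA guide) with or without 500 nM mouse GTSF1 at 33 °C for 1 min to 16 h. Uncleaved targets were sequenced and normalised to non-target controls, and the pooled three trials were fitted to a burst-and-steady-state model to give the pre-steady-state cleavage rate (min^-1; k3 is constrained to at most 1e-4). Sequence is the target site only; target names encode pairing extent (gX:gY) and contiguous / 1-mismatch / 2-mismatch / bulge geometry. Fits with R² ≤ 0 are excluded.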

Sequence | pre-steady-state target cleavage rate
UAGUGUGUGACCUUCACUGAGAGAUUAACA | 0.108 ± 0.013
UAGUGACUCACCUUGUCUGAGAGAUUAUGA | 0.0194 ± 0.0092
UAGUGACAGUGGAAGUCUGAGAGAUCAACA | < 0.0001
UAGUGUGUCACCUUCUCUGUGAGAUUAUCA | 0.0478 ± 0.015
UAGUCUGUCACCUUCUCUGAGAGAUUUUGA | 0.0133 ± 0.0061
UAGUGAGUCACGAUCUCUGAGAGAUUAACA | 0.161 ± 0.012
UAGUGACUCACCUUCUGUGAGAGAAUAACA | 0.0221 ± 0.008
UAGUGACAGUGGUUCUUUGAGAGAUUAACA | 0.00806 ± 0.0018
UAGUGACUCACCUUCUCUGAGAGAUUAUCA | 0.198 ± 0.034
UAGUCUGUCACCUUCUCUGUGAGAUAAACA | 0.037 ± 0.0096
UAGUGAGUCACCUUCUCUGAAAGAUUAACA | 0.0887 ± 0.014
UAGUCUGACACCUUCACUGAGAGAUUAACA | 0.135 ± 0.014
UAGUGACAGUCCUUCUCUGUGAGAUUAAGA | 0.00748 ± 0.0028
UAGUCUGUCACGUUCUCUGAGAGAUUUACA | 0.0757 ± 0.01
UAGUGACUCACCUUCUCUGACGAGAUUAACA | 0.00371 ± 0.0031
UAGUGAGUGUGCUUCUCUGAGAGAUUAACA | 0.0669 ± 0.0076
UAGUGAGUCACCUCUCUCUGAGAGAUUAACA | 0.194 ± 0.017
UAGUGUGUCACCUUCACUGAGAGAUUAUCA | 0.0765 ± 0.026
UAGUCUCACACCUUCUCUGAGAGAUUAACA | 0.144 ± 0.0092
UAGUGACUGUGCUUCUCUGAGAGAUUAUGA | 0.00569 ± 0.0029
UAGUGACAGUGGAAGACUGAGAGCAUUAACA | < 0.0001
UAGUGUGUCACCUUCUCUGUGAGUUUAACA | 0.0386 ± 0.0085
UAGUGAGUCACCUUCUGAGAGAGAUUUUGA | 0.011 ± 0.0064

Sequence | pre-steady-state target cleavage rate
UAGUGACUCACGCUUCUCUGAGAGAUUAACA | 0.0763 ± 0.0094
UAGUGAGUCACCUUCACUGACAGAUUAACA | 0.0411 ± 0.013
UAGUGACACACCUUCUCUAGAGAUUAACA | 0.00513 ± 0.004
UAGUGACACACCUUCUCUCAGAGAUUAUCA | 0.0338 ± 0.011
UAGUGUGUCACCAUCUCUGAGAGAUUAUGA | 0.0243 ± 0.0082
UAGUGAGACACCUACUCUGAGAGAUUAACA | 0.158 ± 0.011
UAGUGACAGUCCUUCCUCUGAGAGAUUAACA | 0.0786 ± 0.0098
UAGUGACACACCUUUCUGAGAGAUUAACA | 0.0339 ± 0.014
UAGUGACUCACCUUCACAGAGAGAUUAACA | 0.035 ± 0.0049
UAGUCUGUCACCUUCUACUGAGAGAUUAACA | 0.199 ± 0.056
UAGUGACAGUGGAAGACUGAGAGAUUAAUCA | < 0.0001
UAGUGACACUACCUUCUCUGAGAGAUUAACA | 0.108 ± 0.011
UAGUGACACACCUACUCUGAGAGAUUAACA | 0.111 ± 0.0077
UAGUGACAGUGCGUCUCUGAGAGAUUAACA | 0.00616 ± 0.0019
UAGUGUGUCUCCUUCUCUGAGAGAUUAUGA | 0.00861 ± 0.005
UAGUGACAGUGCUUCUCUGCGAGAUUAACA | 0.00673 ± 0.0023
UAGUGACUCACCUUCUCUGUGAGAAUAACA | 0.00982 ± 0.0038
UAGUCUGUGACCUUCUCUGUGAGAUUAACA | 0.0376 ± 0.0027
UAGUGACUCACCUUCUCUGAGAGAAUAUCA | 0.0103 ± 0.0052
UAGUGAGUCACGUUCUGUGAGAGAUUAACA | 0.106 ± 0.0071
UAGUGACAGUGCUUGUCUGAGAGAUUUACA | 0.00774 ± 0.0035
UAGUGUCUCACCUUCUCUGAGAGAUUAAGA | 0.114 ± 0.033
UAGUGACAGUGCUUCUCUGAAAGAUUAACA | 0.00938 ± 0.0031

Sequence | pre-steady-state target cleavage rate
UAGUGACUCACCUUAUCUGAGAGAUUAACA | 0.125 ± 0.011
UAGUCUGUCACCUUCUCUGAGAGUUAAACA | 0.328 ± 0.096
UAGUGUGUCACCUUGUCUGAGAGAUAAACA | 0.00975 ± 0.005
UAGUGUGUCACCUUCUCUGAGAGUUUAUGA | 0.0769 ± 0.038
UAGUGACACACCUUCUGUGAGUGAUUAACA | 0.0105 ± 0.0042
UAGUGACUCUCCUUCUCUGAGAGAUUAAGA | 0.0164 ± 0.0068
UAGUGACAGUGCUUCUCUGAGAGCAUUAACA | 0.0156 ± 0.0038
UAGUCACACACCUUCUCUGAGAGAUUAUGA | 0.0595 ± 0.018
UAGUGACAGACCAUCUGUGAGAGAUUAACA | 0.0275 ± 0.0074
UAGUGACAGUGCUUCAUCUGAGAGAUUAACA | 0.00529 ± 0.0024
UAGUGACAGUGCUUCUCUGAGAGAUUAGACA | 0.00902 ± 0.0031
UAGUGAGUGACCUUCUCUGAGAGAUUAUCA | 0.0842 ± 0.015
UAGUGACACUGGUUCUCUGAGAGAUAUUGA | < 0.0001
UAGUGAGUCACCUUCUCUGAGAGAUAACA | 0.107 ± 0.038
UAGUGACACACCUUCAUCUGAGAGAUUAACA | 0.0394 ± 0.012
UAGUGUGUCACCUUCUCUGUGAGAUUUUGA | 0.00698 ± 0.0049
UAGUGACACACCUUCUCUCUGAGAUUAACA | 0.00653 ± 0.0037
UAGUCUGUCACCUUCUGACAGAGAUUAACA | 0.014 ± 0.0054
UAGUGAGUCAGCUUCUCUGAGAGAAUAACA | 0.0677 ± 0.016
UAGUGUGUCUCCUACUCUGAGAGAUUAACA | 0.104 ± 0.012
UAGUGAGACAGCUUCUCUGAGAGAUUAACA | 0.0918 ± 0.0066
UAGUGAGUCACCAUCUCUGAGAGAUUAACA | 0.195 ± 0.013
UAGUGACUCACCUUCUCUGUGAGAUUUACA | 0.0274 ± 0.0087

Sequence | pre-steady-state target cleavage rate
UAGUGUGUCACCUUCUCUGAGAGAUUAACU [g2:g25:cont:t1U] | 0.187 ± 0.015
UAGUGAGUCACCUUCACUGAGAGAUUUACA | 0.135 ± 0.026
UAGUCUGUCACCUUCGUCUGAGAGAUUAACA | 0.116 ± 0.0099
UAGUGACUCACCUUCUCUGACACAUUAACA | 0.00743 ± 0.004
UAGUCUGUCACCUUCUCUGGGAGAUUAACA | 0.213 ± 0.014
UAGUGACACACCUUCGUCUGAGAGAUUAACA | 0.0417 ± 0.007
UAGUGACAGACCUUCUCUGAGAGAUGAACA | 0.0194 ± 0.0082
UAGUGACUCACCUUCUCUGAGAGAUUAAGA | 0.106 ± 0.015
UAGUGACAGUGCUUCUCUGACAGUUUAACA | < 0.0001
UAGUGAGUCACCUUCUCUGAGGAUUAACA | 0.0489 ± 0.016
UAGUGAGUCACCUUCUCUGUGAGAAUAACA | 0.0115 ± 0.0047
UAGUGACACACCUACUCUGAGAGAAUAACA | 0.00881 ± 0.0041
UAGUGACAGUGCUUCCCUGAGAGAUUAACA | 0.0245 ± 0.0075
UAGUGACAGACCUUCCUCUGAGAGAUUAACA | 0.0307 ± 0.0059
UAGUGACAGUCCUUCUGUCAGAGAUUAACA | 0.00956 ± 0.0043
UAGUGACAGUGGAAGAGACUGAGAUAUAACA | < 0.0001
UAGUGAGUCACCUUCUCUGAGAGAUUUAACA | 0.225 ± 0.04
UAGUGAGUCACCUUCCCUGAGAGAUUAACA | 0.394 ± 0.074
UAGUGACACAGCUUCUCUGAGACAUUAACA | 0.0087 ± 0.0021
UAGUGACACACCUUCUGUGAGAGAUUUUGA | 0.0219 ± 0.0092
UAGUGAGUCAGGAUCUCUGAGAGAUUAAGA | 0.00731 ± 0.0022
UAGUGACACACCUUCUCUGAGAGAAUUAACA | 0.175 ± 0.035
UAGUGACUCACCUUCACUGAGAGAUUAAGA | 0.0749 ± 0.015
